Measurements as given in PubChem BioAssay AID686979 (National Center for Advancing Translational Sciences (NCATS), 2013).
The whole screen tested about 420,000 compounds, of which about 50,000 (12%) were called active. Inconclusive results, whose numbers are uncertain, are shown with a selection of clear calls. Calls come from the whole dose curve; as a rule, active = well fitted inhibition curve with a large enough effect; inconclusive = small, poorly fitted or top-dose-only effect; inactive = flat fitted curve, though single readings scatter. Potencies of inconclusive entries are left out as doubtful fits.

Test: qHTS for Inhibitors of human tyrosyl-DNA phosphodiesterase 1 (TDP1): qHTS in cells in presence of CPT; note: nearly all actives have a fitted effect of over 55% in size
Details: chicken DT40 Tdp1-/-;hTDP1 cells + 20 nM CPT, ATP luminescence, 48 h; activity change, negative = growth inhibition: at 46.2 µM (top of the series) unless noted
Summary of the method: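 Chicken DT40 Tdp1-/- cells stably complemented with human TDP1 were seeded at 400 cells/well in medium containing 20 nM camptothecin, exposed to pin-transferred compounds, and grown at 37 °C for at least 48 hr. Viability was read as ATP luminescence.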
% is set by controls: 0 for no effect and ±100 for the full control effect; potency is the fitted concentration of half-maximal effect; tags give direction and shape of the fitted curve.

| SMILES | Potency | activity change, negative = growth inhibition |
| --- | --- | --- |
| COc1cccc(/C=C/c2nc(C#N)c(N3CCCCC3)o2)c1 | active: 20.6 µM | – |
| CCOC(=O)c1c(NC(=O)/C=C/c2ccc(OC)c(OC)c2)sc(C(C)=O)c1C | – | inactive: -9.96% |
| CCn1cc(C2N3CC4(CC)CN2CC(CC)(C3)C4=O)c2ccccc21 (centres undefined) | inconclusive [inhibitor, single point] | – |
| O=S1(=O)[C@H]2C[C@@H]3C=C[C@@]2(CN1Cc1ccc(Cl)cc1)O3 | inactive | – |
| O=C(CN1CCSc2ccccc21)N1CCN(c2ccccc2)CC1 | inconclusive [inhibitor, single point] | – |
| O=C(Cc1cccs1)Nc1nc2ccccc2s1 | inconclusive [inhibitor, single point] | – |
| CNC(=O)[C@H]1O[C@@H](n2cnc3c(NCc4cccc(I)c4)ncnc32)[C@H](O)[C@@H]1O | inconclusive [inhibitor, single point] | – |
| COc1cccc(CN(C)C(=O)c2ccc(OCC(=O)Nc3cccc(C(F)(F)F)c3)c(OC)c2)c1 | active: 10.3 µM | – |
| CCOC(=O)CCN(C(=S)Nc1ccccc1)C1CCCCC1 | – | inactive: 10.7% |
| COc1ccc(C2=CC3=C(Br)C(=O)C(C)(O)C(=O)C3=CO2)cc1 (centres undefined) | – | inactive: -29.6% |
| CCOc1ccc(NC(=O)C2CCN(S(=O)(=O)c3ccc4c(c3)N(C(C)=O)CCO4)CC2)cc1 | inconclusive [inhibitor, partial curve, poor fit] | – |
| C[C@H](CO)N1C[C@H](C)[C@@H](CN(C)C(=O)Nc2ccccc2)Oc2cc(Br)ccc2S1(=O)=O | – | inactive: -28.3% |
| Cc1cccc(CNc2nc(-c3cccc(NS(C)(=O)=O)c3)nc3ccccc23)c1 | inconclusive [inhibitor, single point] | – |
| O=C(/C=C/c1ccc(Cl)cc1)N1CCN(c2ccc([N+](=O)[O-])c(N3CCOCC3)c2)CC1 | inconclusive [inhibitor, single point] | – |
| COc1ccccc1N1CCN(C(=O)c2ccc(COc3cccc4c3OC(C)(C)C4)cc2)CC1 | inconclusive [inhibitor, single point] | – |
| CN1CCC2(CC1)CCN(C(=O)c1cccc(F)c1)CC2 | – | inactive: 20.8% |
| CN(C(=O)c1cccc(NC(=O)Cc2cccc(NC(=O)C3CCN(C(=O)c4ccccc4)CC3)c2)c1)C1CC1 | – | inactive: -20.4% |
| COc1ccccc1CNC(=O)C1CCCN(c2nn3cc(-c4ccc(F)cc4)nc3s2)C1 (centres undefined) | inconclusive [inhibitor, single point] | – |
| CNC(=O)c1ccsc1NC(=O)c1coc2ccccc2c1=O | inconclusive [inhibitor, single point] | – |
